Measured values taken from the supplement of paper PMC11417369.
This is one part of the list.

Test system: PfSIP2 AP2 domain 1 (GST-tagged)
Assay: gcPBM binding intensity (ln(normalized median fluorescence intensity)); higher = stronger DNA binding
In short: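 After 1 h on an Agilent 4 × 180k array of primer-extended double-stranded 36-bp intergenic genomic probes and negative controls, bound GST-tagged P. falciparum DNA-binding domains were detected with Alexa488 anti-GST antibody and scanned at 488 nm. The domains had been expressed in E. coli, and binding took place in 1× PBS with 1% milk, 0.2 mg/ml BSA, 0.5% salmon testes DNA and 0.03% Triton X-100. Binding intensity is the highest Masliner-normalised natural-log median intensity across replicate spots of either probe orientation.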

First: TTATTTTTTAAAAGTAGTACAAATTTTTATAGAAAA [XGTACX_site7407]
Second: ATTCCTTGGTTGTATAGTACTTTGGTTAAACATAAA [XGTACX_site6967]
The “gcPBM binding intensity (ln)” value of the first is lower: 7.09 for the first, 7.4 for the second.

Compared with “CAATATTTGTTATGGGTGCAAACCGCATATATATAA [GTGCAC_site9543]”, “ATATATATATATAATAGTACATATATTTTGAAAGAT [XGTACX_site5800]” is lower in “gcPBM binding intensity (ln)” value: 11 for the first, 8.58 for the second.

Going from “TATGTGTGAAAAAAATGTACATATATATAAATTATA [XGTACX_site7202]” to “AACTGTAAAAAATATAAACACACATAGAAATATATA [CACACA_site8002]”, the “gcPBM binding intensity (ln)” value falls from 7.07 to 7.01.

Going from “AATTAAAAAAGTAATTAACACACAATAATGTAATGC [CACACA_site9388]” to “GTTCTGTAAATACGTGCACACACAAATCACAAATGT [CACACA_site7999]”, the “gcPBM binding intensity (ln)” value rises from 6.9 to 10.1.

First: AAAGAAATGAAATATACACACATACATATATACATA [CACACA_site9335]
Second: GATATATTTTATATATGTACATACAATGGTAAATAT [XGTACX_site2759]
The “gcPBM binding intensity (ln)” value of the first is lower: 6.7 for the first, 7.09 for the second.

Going from “TTTTTTTTCTTTTTTTGTACATAATAATATATAAAT [XGTACX_site6778]” to “AAAAATGAAAAATGAAAAATGAAAAATGAAAAATAA [CACACA_negctrl_site695]”, the “gcPBM binding intensity (ln)” value falls from 7.03 to 6.87.

Compared with “TATTCTTACAAAAGTAGTACAATCATTCATATTTTT [XGTACX_site631]”, “TAGTTTCAAGTAGGACGTACATATAAAAGGATTTTT [XGTACX_site7136]” is lower in “gcPBM binding intensity (ln)” value: 6.99 for the first, 6.87 for the second.

First: GGATATTATATAAAGTGTACAAGACAAATATATACA [XGTACX_site8173]
Second: ATATATCAAGGGAGTGAATGTTATGCATATGAATAT [TGCATGCA_negctrl_site573]
The “gcPBM binding intensity (ln)” value of the first is higher: 7.12 for the first, 7.07 for the second.

Compared with “AAATTAACAAACTGTAGTACTAACAATATATACAAA [XGTACX_site1772]”, “AAAAAAAAAAAACACACACACAAAATAAACAAACAA [CACACA_site2721]” is higher in “gcPBM binding intensity (ln)” value: 7.13 for the first, 7.16 for the second.

First: ATTATAATTATCAAGGTGCGTGTATTATAATAAATA [GTGCAC_site9917]
Second: TAATATAATAATAATTGTACTTTTCATAGTGTAATT [XGTACX_site8152]
The “gcPBM binding intensity (ln)” value of the first is higher: 9.46 for the first, 6.85 for the second.

Going from “TTATAATCAATGAATACACACATATATTTAATTAAT [CACACA_site3613]” to AATTTTCCATAGATTGTGCACAAATTTTTATTTTGT, the “gcPBM binding intensity (ln)” value rises from 6.97 to 8.58.

Compared with “AAGAAAAAGACTTCATGAAAAAGAATTTTTTTAATT [TGCATGCA_negctrl_site473]”, “ATATATTTTTTTTTTATTTTATTATTATAATTTATC [XGTACX_negctrl_site16]” is higher in “gcPBM binding intensity (ln)” value: 6.44 for the first, 7.02 for the second.

Compared with “TAATATTATTTTTCAGTGCAATATAACCTTAGAATT [GTGCAC_site9417]”, “ATTTTATTTTTTTGAAGTACGAATTCCGAGAAGAAA [XGTACX_site43]” is higher in “gcPBM binding intensity (ln)” value: 7.34 for the first, 7.48 for the second.

Going from AAACAAAACAACTAAGTGCATAAAAATAAAATAAAT to “TATAGTTCTTCTATTTGTACATATATTATTATTTAA [XGTACX_site895]”, the “gcPBM binding intensity (ln)” value falls from 8.04 to 6.9.

Compared with “TATTCAAAAATATAAACAATGAAACAGTATAATATG [CACACA_negctrl_site1482]”, TTTTAAGGTGTGAAGGTGCAAAAAGGTAAATAGGAA is higher in “gcPBM binding intensity (ln)” value: 7.09 for the first, 10.8 for the second.

Compared with “TAAACAGAAGCACATACACACACTCAAAAAAAAAAA [CACACA_site3051]”, “AAAATACATAAACACACACACACACCGATATATATA [CACACA_site9186]” is higher in “gcPBM binding intensity (ln)” value: 7.15 for the first, 7.52 for the second.

Compared with “CACAAACACCCAAACACACACACACCGACATACATA [CACACA_site4410]”, “AAAAAAAAAAAAGGCACACAAACATATGTAGACATA [CACACA_site2284]” is lower in “gcPBM binding intensity (ln)” value: 7.21 for the first, 7.03 for the second.

Compared with “TCGTGTGTAATATTATATATATATATATAATATATA [TGCATGCA_negctrl_site289]”, “TCTTTTATATTGTAGAGTACATATTTTCAATATATA [XGTACX_site5586]” is lower in “gcPBM binding intensity (ln)” value: 7.78 for the first, 6.95 for the second.

Going from “TTCTTTTATAAAAGTAGTACAATTATATTGTAATTA [XGTACX_site2855]” to “AAATTGTCAAAACACGCACACACATATACATAATAA [CACACA_site1743]”, the “gcPBM binding intensity (ln)” value rises from 7.14 to 7.49.

First: GTGATACGCTATAGGACACACGCTTAATAATTATAA [CACACA_site1694]
Second: ATCATAAATTATTATACACACAATACGTGACCTATT [CACACA_site1906]
The “gcPBM binding intensity (ln)” value of the first is lower: 6.95 for the first, 7.06 for the second.

Going from “TCTATGTAGTTTTTATGTACTAAATAAATAAATAAA [XGTACX_site2599]” to “TAGAAGCAGAAACACACACACATACATACACATACA [CACACA_site1467]”, the “gcPBM binding intensity (ln)” value falls from 7.29 to 7.09.

Compared with “TTTTCAATATATATTTGTACTTTATTTTATGATATT [GTGCAC_negctrl_site732]”, “GCATTCATTTTTAATACACACAAAAAAAAAATAAAA [CACACA_site2408]” is higher in “gcPBM binding intensity (ln)” value: 7.13 for the first, 7.3 for the second.

Going from ACTATTAACAGTGTAGTGCAAAAAGGTTAATTATTA to “TAAATGTCCTTATTTGCACACACACCGATAAGAAAT [CACACA_site5723]”, the “gcPBM binding intensity (ln)” value falls from 8.89 to 7.47.

Going from “TACATATATATTTGTTCACACACACCCAAAAAAAAA [CACACA_site8788]” to “TACGCACAAAAATATACACACACACCGATATATTTA [CACACA_site9213]”, the “gcPBM binding intensity (ln)” value rises from 7.01 to 7.15.

First: AGACATTTTTAAGCAAAACATTCATCATCTTATAAT [CACACA_negctrl_site1539]
Second: TATTTTACACATTTACGTACATAAATATATATATAT [XGTACX_site8788]
The “gcPBM binding intensity (ln)” value of the first is lower: 6.74 for the first, 8.5 for the second.

First: CTAACAACCAAACGCACACACACAAAAAAAAAAATA [CACACA_site400]
Second: TTTGAAATGATATATAAACACACATATATATATATA [CACACA_site9170]
The “gcPBM binding intensity (ln)” value of the first is lower: 7.51 for the first, 9.67 for the second.

First: ATATTGAATTCCAACACATGCAAAACTTTCGGTTTT [TGCATGCA_site485]
Second: TATTAAAAGGTGAGTACACACATATATGCGTATATA [CACACA_site2102]
The “gcPBM binding intensity (ln)” value of the first is lower: 6.82 for the first, 6.96 for the second.

First: AACAACTATTAATTTACACACATGTATATATCTTAC [CACACA_site7459]
Second: TATGTAAAAACAGGCACACATATATCATATATATAT [CACACA_site619]
The “gcPBM binding intensity (ln)” value of the first is lower: 7.07 for the first, 8.87 for the second.

For “TATGTATGCCTGTTTTGTACTTAAGAAAATGTTGCT [XGTACX_site8443]”, the “gcPBM binding intensity (ln)” value was 6.95.
